In PMC9911399, “Two distinct binding modes provide the RNA-binding protein RbFox with extraordinary sequence specificity” one finds binding signal data, which are given here for 31 molecules.

T1: RBFOX1 RRM RbFoxmut (Fox-RRM*) (Homo sapiens, UniProt Q9NWB1 109-208, R118D;E147R;N151S;E152T)
T1 sequence: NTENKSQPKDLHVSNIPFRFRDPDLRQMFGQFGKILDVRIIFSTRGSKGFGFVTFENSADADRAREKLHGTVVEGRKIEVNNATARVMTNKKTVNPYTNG

B1: GACCUGG (DNA:RNA)
RNA: GGGAGACCGGAAUUCAGAUUGUCCGACCUGGUUAAAUCCCGUCGUAGCCACCA
DNA 1: CAATCTGAATTCCGGTCTCCC
DNA 2: TGGTGGCTACGACGGGATT
B2: CAGUGCC (DNA:RNA)
RNA: B1 RNA with G25C, C27G, C28U, U29G, G30C, G31C
DNA 1: CAATCTGAATTCCGGTCTCCC
DNA 2: TGGTGGCTACGACGGGATT
B3: UCCACGC (DNA:RNA)
RNA: B1 RNA with G25U, A26C, C28A, U29C, G31C
DNA 1: CAATCTGAATTCCGGTCTCCC
DNA 2: TGGTGGCTACGACGGGATT
B4: AUAUUUG (DNA:RNA)
RNA: B1 RNA with G25A, A26U, C27A, C28U, G30U
DNA 1: CAATCTGAATTCCGGTCTCCC
DNA 2: TGGTGGCTACGACGGGATT
B5: ACCAGAA (DNA:RNA)
RNA: B1 RNA with G25A, A26C, C28A, U29G, G30A, G31A
DNA 1: CAATCTGAATTCCGGTCTCCC
DNA 2: TGGTGGCTACGACGGGATT
B6: GAAGUCC (DNA:RNA)
RNA: B1 RNA with C27A, C28G, G30C, G31C
DNA 1: CAATCTGAATTCCGGTCTCCC
DNA 2: TGGTGGCTACGACGGGATT
B7: CAUUCCC (DNA:RNA)
RNA: B1 RNA with G25C, C27U, C28U, U29C, G30C, G31C
DNA 1: CAATCTGAATTCCGGTCTCCC
DNA 2: TGGTGGCTACGACGGGATT
B8: ACUCAUG (DNA:RNA)
RNA: B1 RNA with G25A, A26C, C27U, U29A, G30U
DNA 1: CAATCTGAATTCCGGTCTCCC
DNA 2: TGGTGGCTACGACGGGATT
B9: CGUUAAG (DNA:RNA)
RNA: B1 RNA with G25C, A26G, C27U, C28U, U29A, G30A
DNA 1: CAATCTGAATTCCGGTCTCCC
DNA 2: TGGTGGCTACGACGGGATT
B10: CAGUAGG (DNA:RNA)
RNA: B1 RNA with G25C, C27G, C28U, U29A
DNA 1: CAATCTGAATTCCGGTCTCCC
DNA 2: TGGTGGCTACGACGGGATT
B11: CCGCAAG (DNA:RNA)
RNA: B1 RNA with G25C, A26C, C27G, U29A, G30A
DNA 1: CAATCTGAATTCCGGTCTCCC
DNA 2: TGGTGGCTACGACGGGATT
B12: CGCCAGU (DNA:RNA)
RNA: B1 RNA with G25C, A26G, U29A, G31U
DNA 1: CAATCTGAATTCCGGTCTCCC
DNA 2: TGGTGGCTACGACGGGATT
B13: AAUCUCC (DNA:RNA)
RNA: B1 RNA with G25A, C27U, G30C, G31C
DNA 1: CAATCTGAATTCCGGTCTCCC
DNA 2: TGGTGGCTACGACGGGATT
B14: GCUGUCU (DNA:RNA)
RNA: B1 RNA with A26C, C27U, C28G, G30C, G31U
DNA 1: CAATCTGAATTCCGGTCTCCC
DNA 2: TGGTGGCTACGACGGGATT
B15: GGGAGCC (DNA:RNA)
RNA: B1 RNA with A26G, C27G, C28A, U29G, G30C, G31C
DNA 1: CAATCTGAATTCCGGTCTCCC
DNA 2: TGGTGGCTACGACGGGATT
B16: GGCGCGG (DNA:RNA)
RNA: B1 RNA with A26G, C28G, U29C
DNA 1: CAATCTGAATTCCGGTCTCCC
DNA 2: TGGTGGCTACGACGGGATT
B17: GCAACCG (DNA:RNA)
RNA: B1 RNA with A26C, C27A, C28A, U29C, G30C
DNA 1: CAATCTGAATTCCGGTCTCCC
DNA 2: TGGTGGCTACGACGGGATT
B18: GGAUACU (DNA:RNA)
RNA: B1 RNA with A26G, C27A, C28U, U29A, G30C, G31U
DNA 1: CAATCTGAATTCCGGTCTCCC
DNA 2: TGGTGGCTACGACGGGATT
B19: GGGCUGC (DNA:RNA)
RNA: B1 RNA with A26G, C27G, G31C
DNA 1: CAATCTGAATTCCGGTCTCCC
DNA 2: TGGTGGCTACGACGGGATT
B20: AGAUCGG (DNA:RNA)
RNA: B1 RNA with G25A, A26G, C27A, C28U, U29C
DNA 1: CAATCTGAATTCCGGTCTCCC
DNA 2: TGGTGGCTACGACGGGATT
B21: CCUAAUG (DNA:RNA)
RNA: B1 RNA with G25C, A26C, C27U, C28A, U29A, G30U
DNA 1: CAATCTGAATTCCGGTCTCCC
DNA 2: TGGTGGCTACGACGGGATT
B22: CCGGCUA (DNA:RNA)
RNA: GGGAGACCGGAAUUCAGAUUGUCCCCGGCUAUUAAAUCCCGUCGUAGCCACCA
DNA 1: CAATCTGAATTCCGGTCTCCC
DNA 2: TGGTGGCTACGACGGGATT
B23: UAGGUUC (DNA:RNA)
RNA: B22 RNA with C25U, C26A, C29U, A31C
DNA 1: CAATCTGAATTCCGGTCTCCC
DNA 2: TGGTGGCTACGACGGGATT
B24: CGGAGCG (DNA:RNA)
RNA: B22 RNA with C26G, G28A, C29G, U30C, A31G
DNA 1: CAATCTGAATTCCGGTCTCCC
DNA 2: TGGTGGCTACGACGGGATT
B25: GUGAUAA (DNA:RNA)
RNA: B22 RNA with C25G, C26U, G28A, C29U, U30A
DNA 1: CAATCTGAATTCCGGTCTCCC
DNA 2: TGGTGGCTACGACGGGATT
B26: UAAGUGU (DNA:RNA)
RNA: B1 RNA with G25U, C27A, C28G, G31U
DNA 1: CAATCTGAATTCCGGTCTCCC
DNA 2: TGGTGGCTACGACGGGATT
B27: CUGUAUU (DNA:RNA)
RNA: B22 RNA with C26U, G28U, C29A, A31U
DNA 1: CAATCTGAATTCCGGTCTCCC
DNA 2: TGGTGGCTACGACGGGATT
B28: UUAAGAA (DNA:RNA)
RNA: B22 RNA with C25U, C26U, G27A, G28A, C29G, U30A
DNA 1: CAATCTGAATTCCGGTCTCCC
DNA 2: TGGTGGCTACGACGGGATT
B29: UUGCGUA (DNA:RNA)
RNA: B22 RNA with C25U, C26U, G28C, C29G
DNA 1: CAATCTGAATTCCGGTCTCCC
DNA 2: TGGTGGCTACGACGGGATT
B30: ACAAGAG (DNA:RNA)
RNA: B22 RNA with C25A, G27A, G28A, C29G, U30A, A31G
DNA 1: CAATCTGAATTCCGGTCTCCC
DNA 2: TGGTGGCTACGACGGGATT
B31: AGUGAGG (DNA:RNA)
RNA: B1 RNA with G25A, A26G, C27U, C28G, U29A
DNA 1: CAATCTGAATTCCGGTCTCCC
DNA 2: TGGTGGCTACGACGGGATT

Residue numbers refer to the chain shown, from its start. The list shows a part of the results.

The target of this experiment is T1, RBFOX1 RRM RbFoxmut (Fox-RRM*). In words: EMSA; HiTS-Eq, 1 nM pool, 10 min; buffer printed only for the single-RNA assays: 10 mM Tris pH 7.5, 150 mM NaCl, 3.4 mM EDTA, 0.001% NP-40, 30 C. Particulars: tags: His6 N-terminal (pET28a); label: 5' 32P. The gist of the method: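 A pool of RNA with 7 randomized nucleotides, 5′-radiolabelled and with DNA-annealed flanks, was equilibrated at 1 nM for 10 min in 50 µL with purified RbFox RRM, wild type or mutant, across increasing protein concentrations. Free RNA was separated by 8% native PAGE, excised, reverse-transcribed, barcoded by PCR and sequenced. Relative association constants were obtained from read-count changes of each RNA species versus the control reaction and normalised to the cognate motif.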
A general note: Mobility shift assays separate free from complexed probe on a gel.
On to B1, for which the binding signal is 0.0986 KA relative to UGCAUGU.

Consider B2, for which the binding signal is 0.402 KA relative to UGCAUGU.

As for B3, the binding signal was 0.0819 KA relative to UGCAUGU.

On to B4, for which the binding signal was 0.0924 KA relative to UGCAUGU.

As for B5, the binding signal was 0.0963 KA relative to UGCAUGU.

Take B6: the binding signal was 0.0491 KA relative to UGCAUGU.

On to B7, for which the binding signal was 0.0546 KA relative to UGCAUGU.

Take B8: the binding signal is 0.158 KA relative to UGCAUGU.

For the molecule B9, the binding signal was 0.141 KA relative to UGCAUGU.

As to B10, the binding signal was 0.0923 KA relative to UGCAUGU.

Turning to B11, the binding signal was 0.099 KA relative to UGCAUGU.

Take B12: the binding signal is 0.0925 KA relative to UGCAUGU.

Take B13: the binding signal was 0.049 KA relative to UGCAUGU.

In the case of B14, the binding signal was 0.0672 KA relative to UGCAUGU.

For the molecule B15, the binding signal is 0.14 KA relative to UGCAUGU.

Regarding B16, the binding signal is 0.0869 KA relative to UGCAUGU.

Regarding B17, the binding signal was 0.0732 KA relative to UGCAUGU.

Consider B18, for which the binding signal is 0.0726 KA relative to UGCAUGU.

Consider B19, for which the binding signal was 0.126 KA relative to UGCAUGU.

Regarding B20, the binding signal was 0.124 KA relative to UGCAUGU.

With B21, the binding signal was 0.124 KA relative to UGCAUGU.

In the case of B22, the binding signal was 0.0822 KA relative to UGCAUGU.

In the case of B23, the binding signal is 0.123 KA relative to UGCAUGU.

In the case of B24, the binding signal was 0.166 KA relative to UGCAUGU.

As to B25, the binding signal was 0.094 KA relative to UGCAUGU.

Turning to B26, the binding signal was 0.128 KA relative to UGCAUGU.

Turning to B27, the binding signal is 0.124 KA relative to UGCAUGU.

For B28, the binding signal is 0.121 KA relative to UGCAUGU.

With B29, the binding signal was 0.211 KA relative to UGCAUGU.

In the case of B30, the binding signal was 0.105 KA relative to UGCAUGU.

Take B31: the binding signal is 0.111 KA relative to UGCAUGU.
